Laboratory results published in patent US7619094B2, “Ketoamides with cyclic P4's as inhibitors of NS3 serine protease of hepatitis C virus” (Schering Corporation, priority 2004, dated 2009).
pKi: −log10 of the molar value.

Target: Recombinant heterodimeric HCV NS3/NS4A protease (strain 1a) (Hepatitis C virus genotype 1a, UniProt P27958)
Test: HCV continuous assay (spectrophotometric HCV NS3/NS4A serine protease inhibition assay)
Type: biochemical, HCV (strain 1a)
Details: Table 1; ranges of Ki* values in HCV continuous assay

SMILES	pKi
C=CCNC(=O)C(=O)C(CCC)NC(=O)[C@@H]1[C@@H]2[C@H](CN1C(=O)[C@@H](NC(=O)N[C@H](CN1Cc3sccc3S1(=O)=O)C(C)(C)C)C1CCCCC1)C2(C)C (some centres unmarked) [Compound 5177]	≥ 7.30
C=CCNC(=O)C(=O)C(CC1CC1)NC(=O)[C@@H]1[C@@H]2[C@H](CN1C(=O)[C@@H](NC(=O)N[C@H](CN1Cc3ccccc3S1(=O)=O)C(C)(C)C)C1CCCCC1)C2(C)C (some centres unmarked) [Compound 5249]	≥ 7.30
C=CCNC(=O)C(=O)C(CC1CC1)NC(=O)[C@@H]1[C@@H]2[C@H](CN1C(=O)[C@@H](NC(=O)N[C@H](CN1CCCN(C)S1(=O)=O)C(C)(C)C)C1CCCCC1)C2(C)C (some centres unmarked) [Compound 5238]	≥ 7.30
CC(C)N1CCN(C[C@@H](NC(=O)N[C@H](C(=O)N2C[C@H]3[C@@H]([C@H]2C(=O)NC(CC2CC2)C(=O)C(N)=O)C3(C)C)C(C)(C)C)C(C)(C)C)S1(=O)=O (some centres unmarked) [Compound 5218]	≥ 7.30
C=CCNC(=O)C(=O)C(CCC)NC(=O)[C@@H]1[C@@H]2[C@H](CN1C(=O)[C@@H](NC(=O)NC1(CN3Cc4sccc4S3(=O)=O)CCCCC1)C(C)(C)C)C2(C)C (some centres unmarked) [Compound 5208]	≥ 7.30
C=CCNC(=O)C(=O)C(CC1CC1)NC(=O)[C@@H]1[C@@H]2[C@H](CN1C(=O)[C@@H](NC(=O)N[C@H](CN1CCCS1(=O)=O)C(C)C)C(C)(C)C)C2(C)C (some centres unmarked) [Compound 5107]	≥ 7.30
CC(C)(C)[C@@H](CN1Cc2ccccc2S1(=O)=O)NC(=O)N[C@H](C(=O)N1C[C@H]2[C@@H]([C@H]1C(=O)NC(CC1CC1)C(=O)C(N)=O)C2(C)C)C1CCCCC1 (some centres unmarked) [Compound 5253]	≥ 7.30
C=CCNC(=O)C(=O)C(CCC(F)(F)F)NC(=O)[C@@H]1[C@@H]2[C@H](CN1C(=O)[C@@H](NC(=O)N[C@H](CN1CCN(C)S1(=O)=O)C(C)(C)C)C(C)(C)C)C2(C)C (some centres unmarked) [Compound 5157]	≥ 7.30
C=CCNC(=O)C(=O)C(CC1CCC1)NC(=O)[C@@H]1[C@@H]2[C@H](CN1C(=O)[C@@H](NC(=O)N[C@H](CN1Cc3ccccc3S1(=O)=O)C(C)(C)C)C1CCCCC1)C2(C)C (some centres unmarked) [Compound 5263]	≥ 7.30
C=CCNC(=O)C(=O)C(CCCC)NC(=O)[C@@H]1[C@@H]2[C@H](CN1C(=O)[C@@H](NC(=O)N[C@H](CN1CCN(C(C)C)S1(=O)=O)C(C)(C)C)C(C)(C)C)C2(C)C (some centres unmarked) [Compound 5205]	≥ 7.30
C=CCNC(=O)C(=O)C(CCC)NC(=O)[C@@H]1[C@@H]2[C@H](CN1C(=O)[C@@H](NC(=O)N[C@H](CN1Cc3ccccc3S1(=O)=O)C1CCCCC1)C(C)(C)C)C2(C)C (some centres unmarked) [Compound 5223]	≥ 7.30
CC(=O)N1CCN(C[C@@H](NC(=O)N[C@H](C(=O)N2C[C@H]3[C@@H]([C@H]2C(=O)NC(CC2CCC2)C(=O)C(N)=O)C3(C)C)C(C)(C)C)C(C)(C)C)S1(=O)=O (some centres unmarked) [Compound 5203]	≥ 7.30
C=CCNC(=O)C(=O)C(CCC(F)(F)F)NC(=O)[C@@H]1[C@@H]2[C@H](CN1C(=O)[C@@H](NC(=O)N[C@H](CN1CCCS1(=O)=O)C(C)(C)C)C(C)(C)C)C2(C)C (some centres unmarked) [Compound 5119]	≥ 7.30
C#CCCC(NC(=O)[C@@H]1[C@@H]2[C@H](CN1C(=O)[C@@H](NC(=O)N[C@H](CN1CCCCS1(=O)=O)C(C)(C)C)C1CCCCC1)C2(C)C)C(=O)C(=O)NCC=C (some centres unmarked) [Compound 5188]	≥ 7.30
CC(C)(C)[C@H](NC(=O)N[C@H](CN1Cc2sccc2S1(=O)=O)C(C)(C)C)C(=O)N1C[C@H]2[C@@H]([C@H]1C(=O)NC(CC1CC1)C(=O)C(N)=O)C2(C)C (some centres unmarked) [Compound 5151]	≥ 7.30

Same assay, conditions: Table 2; ranges of Ki* values in HCV continuous assay

SMILES	pKi
C=CCNC(=O)C(=O)C(CCCC)NC(=O)[C@@H]1[C@@H]2[C@H](CN1C(=O)[C@@H](NC(=O)N[C@H](CN1C(=O)CC(C)(C)CC1=O)C(C)(C)C)C(C)(C)C)C2(C)C (some centres unmarked) [Compound 5753]	≥ 7.30
C=CCNC(=O)C(=O)C(CCC(F)(F)F)NC(=O)[C@@H]1[C@@H]2[C@H](CN1C(=O)[C@@H](NC(=O)N[C@H](CN1CCOC1=O)C(C)(C)C)C(C)(C)C)C2(C)C (some centres unmarked) [Compound 5630]	≥ 7.30
C=CCNC(=O)C(=O)C(CCC(F)(F)F)NC(=O)[C@@H]1[C@@H]2[C@H](CN1C(=O)[C@@H](NC(=O)N[C@H](CN1Cc3ccccc3C1=O)C(C)(C)C)C1CCCCC1)C2(C)C (some centres unmarked) [Compound 5763]	≥ 7.30
C=CCNC(=O)C(=O)C(CCC)NC(=O)[C@@H]1[C@@H]2[C@H](CN1C(=O)[C@@H](NC(=O)N[C@H](CN1CCCN(C)C1=O)C(C)(C)C)C1CCCCC1)C2(C)C (some centres unmarked) [Compound 5687]	< 7.30
CCCCC(NC(=O)[C@@H]1[C@@H]2[C@H](CN1C(=O)[C@@H](NC(=O)N[C@H](CN1CCCCC1=O)C(C)(C)C)C(C)(C)C)C2(C)C)C(=O)C(=O)NCC (some centres unmarked) [Compound 5734]	≥ 7.30
C=CCNC(=O)C(=O)C(CCCC)NC(=O)[C@@H]1[C@@H]2[C@H](CN1C(=O)[C@@H](NC(=O)N[C@H](CN1CCCCC1=O)C(C)C)C(C)(C)C)C2(C)C (some centres unmarked) [Compound 5609]	< 7.30
C#CCCC(NC(=O)[C@@H]1[C@@H]2[C@H](CN1C(=O)[C@@H](NC(=O)N[C@H](CN1C(=O)CC(C)(C)CC1=O)C(C)(C)C)C(C)(C)C)C2(C)C)C(=O)C(=O)NCC=C (some centres unmarked) [Compound 5759]	≥ 7.30
C=CCNC(=O)C(=O)C(CC1CC1)NC(=O)[C@@H]1[C@@H]2[C@H](CN1C(=O)[C@@H](NC(=O)N[C@H](CN1CCCCC1=O)C(C)(C)C)C(C)(C)C)C2(C)C (some centres unmarked) [Compound 5641]	≥ 7.30
CC(C)(C)[C@H](NC(=O)N[C@H](CN1C(=O)CCC1=O)C(C)(C)C)C(=O)N1C[C@H]2[C@@H]([C@H]1C(=O)NC(CC1CCC1)C(=O)C(N)=O)C2(C)C (some centres unmarked) [Compound 5639]	≥ 7.30
CC(C)(C)[C@H](NC(=O)N[C@H](CN1C(=O)c2ccncc2C1=O)C(C)(C)C)C(=O)N1C[C@H]2[C@@H]([C@H]1C(=O)NC(CC1CCC1)C(=O)C(N)=O)C2(C)C (some centres unmarked) [Compound 5659]	≥ 7.30
C=CCNC(=O)C(=O)C(CC1CCC1)NC(=O)[C@@H]1[C@@H]2[C@H](CN1C(=O)[C@@H](NC(=O)N[C@H](CN1C(=O)CCCC1=O)C(C)(C)C)C1CCCCC1)C2(C)C (some centres unmarked) [Compound 5723]	≥ 7.30
C#CCCC(NC(=O)[C@@H]1[C@@H]2[C@H](CN1C(=O)[C@@H](NC(=O)N[C@H](CN1CCCCC1=O)C(C)(C)C)C1CCCCC1)C2(C)C)C(=O)C(=O)NCC=C (some centres unmarked) [Compound 5721]	≥ 7.30
C=CCNC(=O)C(=O)C(CCC(F)(F)F)NC(=O)[C@@H]1[C@@H]2[C@H](CN1C(=O)[C@@H](NC(=O)N[C@H](Cn1ccccc1=O)C(C)C)C(C)(C)C)C2(C)C (some centres unmarked) [Compound 5606]	≥ 7.30
C=CCNC(=O)C(=O)C(CC1CC1)NC(=O)[C@@H]1[C@@H]2[C@H](CN1C(=O)[C@@H](NC(=O)N[C@H](CN1C(=O)CC(C)(C)CC1=O)C(C)(C)C)C1CCCCC1)C2(C)C (some centres unmarked) [Compound 5775]	≥ 7.30
CCC[C@H](NC(=O)[C@@H]1[C@@H]2[C@H](CN1C(=O)[C@@H](NC(=O)N[C@H](CN1C(=O)CC(C)(C)CC1=O)C(C)(C)C)C(C)(C)C)C2(C)C)C(=O)C(=O)NC1CC1 [Compound 5806]	≥ 7.30
C=CCNC(=O)C(=O)C(CC1CC1)NC(=O)[C@@H]1[C@@H]2[C@H](CN1C(=O)[C@@H](NC(=O)N[C@H](CN1C(=O)CCCC1=O)C(C)(C)C)C1(C)CCCCC1)C2(C)C (some centres unmarked) [Compound 5800]	≥ 7.30
CCCC(NC(=O)[C@@H]1[C@@H]2[C@H](CN1C(=O)[C@@H](NC(=O)N[C@H](CN1C(=O)c3ccccc3C1=O)C(C)(C)C)C(C)(C)C)C2(C)C)C(=O)C(=O)NCC (some centres unmarked) [Compound 5653]	≥ 7.30
C=CCNC(=O)C(=O)C(CCCC)NC(=O)[C@@H]1[C@@H]2[C@H](CN1C(=O)[C@@H](NC(=O)N[C@H](CN1C(=O)c3ccccc3C1=O)C(C)(C)C)C(C)(C)C)C2(Cl)Cl (some centres unmarked) [Compound 5760]	≥ 7.30
C=CCNC(=O)C(=O)C(CCCC)NC(=O)[C@@H]1[C@@H]2[C@H](CN1C(=O)[C@@H](NC(=O)N[C@H](CN1C(=O)CC3(CCCC3)CC1=O)C(C)(C)C)C1(C)CCCCC1)C2(C)C (some centres unmarked) [Compound 5795]	≥ 7.30
C=CCNC(=O)C(=O)C(CC1CC1)NC(=O)[C@@H]1[C@@H]2[C@H](CN1C(=O)[C@@H](NC(=O)N[C@H](CN1C(=O)CC(C)(C)CC1=O)C(C)(C)C)C(C)(C)C)C2(C)C (some centres unmarked) [Compound 5754]	≥ 7.30
CC(C)(C)[C@H](NC(=O)N[C@H](CN1C(=O)CCC1=O)C(C)(C)C)C(=O)N1C[C@H]2[C@@H]([C@H]1C(=O)NC(CC1CC1)C(=O)C(N)=O)C2(C)C (some centres unmarked) [Compound 5638]	≥ 7.30
CC(C)(C)[C@H](NC(=O)N[C@H](CN1C(=O)c2ccccc2C1=O)C(C)(C)C)C(=O)N1C[C@@H]2CCC[C@@H]2[C@H]1C(=O)NC(CC1CCC1)C(=O)C(N)=O (some centres unmarked) [Compound 5718]	≥ 7.30
C=CCNC(=O)C(=O)C(CCCC)NC(=O)[C@@H]1[C@@H]2[C@H](CN1C(=O)[C@@H](NC(=O)N[C@H](CN1CCCN(C)C1=O)C(C)(C)C)C(C)(C)C)C2(C)C (some centres unmarked) [Compound 5683]	< 7.30
CC(C)(C)[C@H](NC(=O)N[C@H](CN1C(=O)CNC1=O)C(C)(C)C)C(=O)N1C[C@H]2[C@@H]([C@H]1C(=O)NC(CC1CC1)C(=O)C(N)=O)C2(C)C (some centres unmarked) [Compound 5811]	≥ 7.30
C=CCNC(=O)C(=O)C(CCCC)NC(=O)[C@@H]1[C@@H]2[C@H](CN1C(=O)[C@@H](NC(=O)N[C@H](CN1CCCC1=O)C(C)(C)C)C(C)(C)C)C2(C)C (some centres unmarked) [Compound 5621]	< 7.30
CC1(C)CC(=O)N(C[C@@H](NC(=O)N[C@H](C(=O)N2C[C@H]3[C@@H]([C@H]2C(=O)NC(CC2CC2)C(=O)C(N)=O)C3(C)C)C2CCCCC2)C(C)(C)C)C(=O)C1 (some centres unmarked) [Compound 5786]	≥ 7.30
C=CCNC(=O)C(=O)C(CC1CC1)NC(=O)[C@@H]1[C@@H]2[C@H](CN1C(=O)[C@@H](NC(=O)N[C@H](CN1CCCNC1=O)C(C)(C)C)C(C)(C)C)C2(C)C (some centres unmarked) [Compound 5711]	≥ 7.30
C=CCNC(=O)C(=O)C(CC1CC1)NC(=O)[C@@H]1[C@@H]2[C@H](CN1C(=O)[C@@H](NC(=O)N[C@H](CN1Cc3ccccc3C1=O)C(C)(C)C)C(C)(C)C)C2(C)C (mixture of isomers) [Compound 5743]	≥ 7.30
CCCCC(NC(=O)[C@@H]1[C@@H]2[C@H](CN1C(=O)[C@@H](NC(=O)N[C@H](CN1C(=O)CC(C)(C)CC1=O)C(C)(C)C)C(C)(C)C)C2(C)C)C(=O)C(=O)NCCC (some centres unmarked) [Compound 5807]	≥ 7.30

Same assay, conditions: Table 4; Ki* values

SMILES	pKi
C=CCNC(=O)C(=O)C(CCCC)NC(=O)[C@@H]1[C@@H]2[C@H](CN1C(=O)[C@@H](NC(=O)N[C@H](CN1C(=O)CC(C)(C)CC1=O)C(C)(C)C)C(C)(C)C)C2(C)C (some centres unmarked) [Compound 5753]	8.40
C=CCNC(=O)C(=O)C(CC1CC1)NC(=O)[C@@H]1[C@@H]2[C@H](CN1C(=O)[C@@H](NC(=O)N[C@H](CN1C(=O)CC(C)(C)CC1=O)C(C)(C)C)C1CCCCC1)C2(C)C (some centres unmarked) [Compound 5775]	8.30
C=CCNC(=O)C(=O)C(CC1CC1)NC(=O)[C@@H]1[C@@H]2[C@H](CN1C(=O)[C@@H](NC(=O)N[C@H](CN1C(=O)CC(C)(C)CC1=O)C(C)(C)C)C(C)(C)C)C2(C)C (some centres unmarked) [Compound 5754]	8.40
